# Measured values reported in PubChem BioAssay AID686979 (National Center for Advancing Translational Sciences (NCATS), 2013).
# Where “and” joins values, the source holds several entries; their conditions need not be identical. Identical values can stand only once. In all, about 420,000 compounds went through this assay and about 50,000 (12%) were called active. The inconclusive results got no clear call from the source; some entries with a clear call stand among them for comparison. Calls follow the shape of the dose curve; as a rule, active = well fitted inhibition curve with a large enough effect; inconclusive = small, poorly fitted or top-dose-only effect; inactive = flat fitted curve, though single readings scatter. Where the call is inconclusive, the potency comes from a doubtful curve fit.
# Assay: qHTS for Inhibitors of human tyrosyl-DNA phosphodiesterase 1 (TDP1): qHTS in cells in presence of CPT; also: nearly all actives have a fitted effect of over 55% in size
# Details: chicken DT40 Tdp1-/-;hTDP1 cells + 20 nM CPT, ATP luminescence, 48 h; activity change, negative = growth inhibition: at 46.2 µM (top of the series)
# Procedure, shortened: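 Chicken DT40 Tdp1-/- cells complemented with human TDP1, 400 cells/well, exposed to compounds plus 20 nM camptothecin for at least 48 h at 37 C; viability read as ATP content by CellTiter-Glo luminescence.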
# % is scaled to controls: 0 for no effect and ±100 for the full control effect; potency is read from the fitted curve at half-maximal effect; tags tell the direction and shape of the fitted curve.
Compound,Potency,"activity change, negative = growth inhibition"
CC1(C)Cc2ccccc2-c2nnc(SCC(=O)N3CCc4ccccc43)n21,"inconclusive: 29.1 µM [inhibitor, single point]",–
N#C/C(=N\Nc1ccccc1)C(=N)N1CCCCCC1,"inconclusive: 13 µM [inhibitor, single point]",–
Cc1ncc(CO)c(CO)c1OCC(O)CN1CCN(c2ccc(F)cc2)CC1 (centres undefined),"inconclusive: 29.1 µM [inhibitor, single point]",–
Cc1ccc(S(=O)(=O)c2nc(Nc3ccccc3C#N)sc2Cl)cc1,"inconclusive: 1.84 µM [inhibitor, full curve]",–
Cc1ccc(NC(=O)CNC(=O)OCc2ccccc2)cc1C,"inconclusive: 29.1 µM [inhibitor, single point]",–
CCOC(=O)c1sc(NC(=O)CSc2nnc(C(C)C)n2C)nc1C,"inconclusive: 29.1 µM [inhibitor, single point]",–
COc1ccc(C2Nc3ccccc3C(=O)N2Cc2ccccc2)cc1COc1ccccn1 (centres undefined),"inconclusive: 18.4 µM [inhibitor, single point]",–
COc1ccc(C(C(=O)NC(C)(C)C)N(C(=O)CCC(=O)Nc2ccccn2)C2CCCCC2)cc1 (centres undefined),"inconclusive: 13 µM [inhibitor, single point]",–
CCn1c(SCc2ccccc2F)nc(=O)c2c(C(=O)OC)cc(C3CC3)nc21,active: 16.4 µM,–
Cc1onc(-c2c(Cl)cccc2Cl)c1NC(=O)NC1CCSC1 (centres undefined),inactive,–
CC(C)c1nc2cc(C(=O)N3CCNC(=O)C3c3ccc(F)cc3)ccc2o1 (centres undefined),"inconclusive: 29.1 µM [inhibitor, single point]",–
CC(C)=CCC[C@H](C)C[C@@H]1CC2=C(C(=O)OC(C)(C)O2)[C@H](c2ccc(F)cc2)O1,"inconclusive: 20.6 µM [inhibitor, single point]",–
CC1(C)CC(=O)C(C=Nc2ccc(O)c(N=CC3=C(O)CC(C)(C)CC3=O)c2)=C(O)C1,active: 16.4 µM,–
Cc1ccc2nc(SCC(=O)N3CCOc4ccc(CN5C[C@@H](C)O[C@@H](C)C5)cc4C3)[nH]c2c1,–,inactive: -5.79% [at 9.04 µM]
Cc1ccc([C@H]2C[C@@H](O)[C@H](n3cc(C4CC4)nn3)CN2C(=O)c2cccs2)cc1,"inconclusive: 29.1 µM [inhibitor, single point]",–
O=C(NCc1ccncc1)C1CCN(S(=O)(=O)c2ccccc2)CC1,inactive,–
Cc1cccc(N2CCN(C(=O)c3ccc(NC(=O)c4nsc5ccccc45)cc3)CC2C)c1 (centres undefined),active: 9.2 µM,–
COc1cc(/C=C/C2=NNC(=O)CC2)cc(OC)c1OC,inactive,–
Cc1[nH]c2ccc(C(=O)OC(C)C(=O)N(C)C3CCCCC3)cc2c1C (centres undefined),"inconclusive: 29.1 µM [inhibitor, partial curve]",–
Clc1ccc(/C=C/c2ccc3ccccc3n2)cc1Cl,active: 6.31 µM,–
CCCNc1ccc(-c2nc(-c3ccncc3)no2)cc1[N+](=O)[O-],inactive,–
COc1ccc(C2=NCCn3nc4cc(OC)ccc4c32)cc1,"inconclusive: 16.4 µM [inhibitor, partial curve]",–
O=C(NCc1ccccc1Cl)C1CCN(S(=O)(=O)N2CCCCCC2)CC1,"inconclusive: 10 µM [inhibitor, partial curve]",–

Compound,Potency,"activity change, negative = growth inhibition"
CCOC(=O)C1CCCN(C(=O)Cn2ncc3c([nH]c4ccc(C)cc43)c2=O)C1 (centres undefined),"inconclusive: 18.4 µM [inhibitor, single point]",–
Cc1nn(CC(N)=O)c(=O)c2ccccc12,"inconclusive: 25.9 µM [inhibitor, single point]",–
O=C1Nc2ccccc2CCc2ccccc21,inactive,–
Cc1nn(-c2ccccc2)c(Cl)c1C1C(C#N)=C(N)Oc2n[nH]c(C)c21 (centres undefined),"inconclusive: 29.1 µM [inhibitor, single point]",–
N#C/C(=C(/O)COc1ccccc1)c1nnc2n1CCCCC2,inactive,–
Oc1cccc(C(Nc2nccs2)c2ccc3cccnc3c2O)c1 (centres undefined),active: 3.66 µM,–
O=C(CN1C2CCCC1CC(NC(=O)C1CCCCC1)C2)Nc1ccccc1C(F)(F)F (centres undefined),active: 23.1 µM,–
CC(C)(C)c1cc(NC(=O)COc2ccc(Br)cc2)n(-c2ccccc2)n1,"inconclusive: 32.6 µM [inhibitor, single point]",–
COCc1nnc(NC(=O)c2ccc(S(=O)(=O)N(C)Cc3ccccc3)cc2)o1,"inconclusive: 29.1 µM [inhibitor, single point]",–
Cc1ccc(C)c(N2CCN(C(=O)c3ccc4[nH]c(C)c(C)c4c3)CC2)c1,active: 11.6 µM,–
O=S1(=O)CCOC[C@H](CC2CCCCC2)N1Cc1ccccc1,"inconclusive: 35.5 µM [inhibitor, single point] and inconclusive: 23.1 µM [inhibitor, single point]",–
CCOC(=O)c1cnc2c(OC)cccc2c1Nc1ccc2c(c1)OCCO2,"inconclusive: 20.6 µM [inhibitor, partial curve]",–
CCOC(=O)NC(=O)CSc1nnc(C)s1,inactive,–
CC1CCCN(CCCNC(=O)c2ccc3c(c2)N(Cc2ccc(F)cc2)C(=O)c2ccccc2S3=O)C1 (centres undefined),active: 16.4 µM,–
CC1=C(C(=O)Nc2ccc(C)cc2C)C(c2ccc(C)o2)NC(=S)N1 (centres undefined),inactive,–
Cc1ccccc1OCc1nc2ccccc2n1C,"inconclusive: 16.4 µM [inhibitor, partial curve, poor fit]",–
O=C(CSC1CCCCC1)Nc1ccccc1Br,"inconclusive: 29.1 µM [inhibitor, single point]",–
CCN(CC)C(=O)c1ccc(S(=O)(=O)Cc2ccc(C)cc2)c([N+](=O)[O-])c1,"inconclusive: 29.1 µM [inhibitor, single point]",–
CCCN1CC(=O)N2C(c3cccc(OC)c3OC)c3[nH]c4ccccc4c3C[C@H]2C1=O (some centres undefined),"inconclusive: 29.1 µM [inhibitor, single point]",–
CCOc1ccc(CNc2ncc(-c3ccccc3)n2C)cc1,inactive,–
CCCC(CCC)C(=O)Nc1cccc(-c2cn3cccnc3n2)c1,"inconclusive: 29.1 µM [inhibitor, single point]",–
Nc1nnc(-c2ccccc2)c(-c2ccccc2)n1,"inconclusive: 10.3 µM [inhibitor, partial curve]",–
COc1ccc(NC(=S)N2CCCC2)c(OC)c1,inactive,–

Compound,Potency,"activity change, negative = growth inhibition"
CCOc1ccc(/C(O)=C2/C(=O)C(=O)N(Cc3cccnc3)C2c2ccc(N(C)C)cc2)c(C)c1 (centres undefined),inactive,–
Cc1ccc(OCc2nc(-c3ccc(C(=O)NCCc4ccc(S(N)(=O)=O)cc4)cc3)oc2C)cc1,active: 14.6 µM,–
CC(OC(=O)CCCc1c[nH]c2ccccc12)C(=O)Nc1ccc(S(N)(=O)=O)cc1 (centres undefined),"inconclusive: 14.6 µM [inhibitor, single point]",–
COc1ccc(N2CCN(C(=S)NC(=O)c3cccs3)CC2)c([N+](=O)[O-])c1,"inconclusive: 29.1 µM [inhibitor, single point]",–
COc1cccc(-c2nc(CS(=O)(=O)CC(=O)NC3CCCCC3C)c(C)o2)c1 (centres undefined),"inconclusive: 25.9 µM [inhibitor, single point]",–
Cc1ccc(C(=O)Nc2cc(Cl)ccc2Oc2ccccc2)cc1[N+](=O)[O-],"inconclusive: 29.1 µM [inhibitor, single point]",–
O=C(C1CCC1)N1CCN(c2ccc(C(F)(F)F)cc2[N+](=O)[O-])CC1,"inconclusive: 29.1 µM [inhibitor, single point]",–
CCc1ccc(NC(=O)CCCc2nc(-c3ccco3)no2)cc1,"inconclusive: 29.1 µM [inhibitor, single point]",–
CCOCCCNC(=O)C1CCCN(S(=O)(=O)c2ccc(-n3cnnn3)cc2)C1 (centres undefined),inactive,–
O=C(Nc1ccc(OCc2ccccc2)cc1)Nc1nnc([C@H]2C[C@H](O)[C@@H](CO)O2)s1,"inconclusive: 18.4 µM [inhibitor, partial curve]",–
COc1ccc(CNC(=O)c2c(Nc3ccccc3C)sc(C(=O)c3ccccc3)c2N)cc1,"inconclusive: 25.9 µM [inhibitor, single point]",–
Cc1ccc(-c2n[nH]c(=S)n2/N=C\c2ccco2)cc1,inactive,–
CCCC(=O)N(Cc1cccnc1)c1nc2c(OC)ccc(Cl)c2s1,inactive,–
CNC[C@@H]1Oc2ccc(NC(=O)Nc3c(C)noc3C)cc2CC(=O)N([C@H](C)CO)C[C@H]1C,inactive,–
O=C(Nc1ccc2nc(SCC(=O)N3CCCC3)sc2c1)c1ccccc1F,active: 16.4 µM,–
O=C(Cc1cccs1)Nc1nc2c(s1)CCCC2,"inconclusive: 16.4 µM [inhibitor, partial curve, poor fit]",–
COc1cccc(CN2CCCC(c3nc(-c4ccncc4)ncc3-c3ccccc3)C2)c1O (centres undefined),"inconclusive: 23.1 µM [inhibitor, single point]",–
Cn1cc(/C=C2\SC(=O)N(c3ccc(O)cc3)C2=O)c2ccccc21,"inconclusive: 29.1 µM [inhibitor, single point]",–
CN(C)S(=O)(=O)N1CCN(CC(=O)Nc2ccc(F)cc2)CC1,inactive,–
NNS(=O)(=O)c1ccc2c(c1)Cc1cc(S(=O)(=O)NN)ccc1-2,inactive,–
COc1ccc(-c2cc(C(=O)N/N=C(\C)c3cccnc3)c3cc(C)ccc3n2)cc1OC,active: 8.2 µM,–
O=C(CCc1ccccc1)NNc1cc(N2CCCCC2)nc(N2CCCCC2)n1,–,inconclusive: -32.9% [inhibitor]
Cc1ccc(NC(=O)CN2C(=O)CCc3cc(S(=O)(=O)N4CCCCC4)ccc32)cc1N(C)C,"inconclusive: 29.1 µM [inhibitor, single point]",–
